In paper PMC4336329 (PLoS ONE, 2015):
In all, about 310,000 compounds went through this assay and about 14,000 (4.5%) showed an effect of 50% or more. Effects have a minus sign here. Some of the results follow.

Target: human ether-à-go-go-related gene (hERG) potassium channel (human, UniProt Q12809)
Assay: primary screen, population patch clamp on CHO cells stably expressing hERG
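Further: peak tail current of the secondary pulse compared with the same well before compound.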

human ether-à-go-go-related gene (hERG) potassium channel, sequence (Q12809 whole entry, looked up): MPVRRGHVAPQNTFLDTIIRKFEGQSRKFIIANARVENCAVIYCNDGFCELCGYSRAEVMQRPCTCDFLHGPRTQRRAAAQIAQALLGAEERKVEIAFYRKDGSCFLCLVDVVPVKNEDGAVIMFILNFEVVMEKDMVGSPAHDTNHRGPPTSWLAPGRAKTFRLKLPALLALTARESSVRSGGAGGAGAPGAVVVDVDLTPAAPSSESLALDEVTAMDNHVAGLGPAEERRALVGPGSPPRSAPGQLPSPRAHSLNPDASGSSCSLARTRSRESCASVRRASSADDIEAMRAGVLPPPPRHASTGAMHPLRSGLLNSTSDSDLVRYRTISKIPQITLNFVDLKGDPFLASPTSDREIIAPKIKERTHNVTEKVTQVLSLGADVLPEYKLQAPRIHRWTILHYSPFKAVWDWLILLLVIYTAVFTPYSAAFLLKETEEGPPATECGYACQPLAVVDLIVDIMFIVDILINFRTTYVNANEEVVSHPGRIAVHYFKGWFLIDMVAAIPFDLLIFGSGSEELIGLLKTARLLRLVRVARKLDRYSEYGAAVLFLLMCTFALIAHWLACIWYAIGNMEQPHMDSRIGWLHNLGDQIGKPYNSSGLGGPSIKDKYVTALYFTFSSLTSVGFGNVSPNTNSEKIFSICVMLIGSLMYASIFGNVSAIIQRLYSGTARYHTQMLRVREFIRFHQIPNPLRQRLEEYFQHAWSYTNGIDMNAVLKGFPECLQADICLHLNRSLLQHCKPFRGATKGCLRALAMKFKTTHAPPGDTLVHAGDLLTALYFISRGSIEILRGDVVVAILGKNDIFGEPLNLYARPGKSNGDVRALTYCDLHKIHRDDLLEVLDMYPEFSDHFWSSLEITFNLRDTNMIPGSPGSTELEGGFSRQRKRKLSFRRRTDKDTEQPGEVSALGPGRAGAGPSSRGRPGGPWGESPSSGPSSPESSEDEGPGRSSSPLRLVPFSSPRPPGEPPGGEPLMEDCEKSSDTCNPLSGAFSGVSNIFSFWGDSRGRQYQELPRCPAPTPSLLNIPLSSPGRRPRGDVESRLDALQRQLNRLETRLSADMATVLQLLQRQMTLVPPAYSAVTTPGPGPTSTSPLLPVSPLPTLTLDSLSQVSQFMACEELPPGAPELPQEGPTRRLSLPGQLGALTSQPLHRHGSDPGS

Row | SMILES | hERG current change (%, negative = inhibition) at 10uM [%]
1 | COc1cc(C(=O)N2CCC(NC(=O)C(Cc3ccc(C)cc3)NC(C)=O)CC2)cc(OC)c1OC (centres unmarked) | 12.1
2 | CC/C(=N\NC(=O)c1nnn(-c2nonc2N)c1-c1cccc(OC)c1)c1ccc(C)cc1 | 6.72
3 | O=C(CN1C(=O)CCS(=O)(=O)c2ccccc21)NCc1ccccc1 | -0.0573
4 | Cc1ccc(C(=O)NC(=S)N(C)C2CCCCC2)cc1Br | 21.9
5 | O=C(NCCCNC(=O)c1ccccc1F)c1ccco1 | 16.1
6 | Nc1nccnc1C(=O)OCC(=O)NCCc1ccc(Cl)cc1 | -22
7 | CCOC(=O)[C@@H]1[C@H]2COc3ccc(Br)cc3[C@@H]2N2C(=O)N(c3cccc(F)c3)C(=O)[C@]12C | -4.89
8 | CCN(CC)CCn1c2c(c(SCC(=O)Nc3cccc4ccccc34)nc1=O)CCCC2 | -63.8
9 | Cc1c(-c2ccccc2)sc(Br)c1C(=O)N1CCOCC1 | -9.27
10 | O=C(COc1ccc(Cl)cc1Cl)Nc1ccccc1NS(=O)(=O)c1cccs1 | 13.1
11 | COC(=O)c1c(O)c2ccccc2[nH]c1=O | -6.52
12 | O=C(CN1C(=O)/C(=C/c2ccccc2F)Sc2ccccc21)NCC1CCCO1 (centres unmarked) | -10.5
13 | CCOc1ccc(N(Cc2cc3cc(C)ccc3[nH]c2=O)S(=O)(=O)c2ccccc2)cc1 | 11.2
14 | Cc1nc2sc(C(c3cccc(F)c3)N3CCN(C(=O)c4ccco4)CC3)c(O)n2n1 (centres unmarked) | -36
15 | O=C(COC(=O)CNC(=O)c1cccs1)Nc1ccc(C(F)(F)F)cc1[N+](=O)[O-] | -44
16 | COc1ccc(Cl)cc1S(=O)(=O)n1nnc2ccccc21 | 12.5
17 | Cn1c(=O)cc(OCC(=O)N2CCN(c3ccccc3F)CC2)c2ccccc21 | -17.5
18 | Cc1ccc(Cc2cnc(NC(=O)c3ccco3)s2)cc1 | 9.83
19 | CN(C)CCO/N=C(\c1ccc(Br)cc1)c1cccnc1.O=C(O)C(=O)O | -63.5

Row | SMILES | hERG current change (%, negative = inhibition) at 10uM [%]
20 | O=C(Nc1ccccc1N1CCCC1)c1ccc([N+](=O)[O-])cc1Cl | -21.5
21 | Cc1csc(SCC(=O)NC(C)c2ccccc2)n1 (centres unmarked) | 1.33
22 | O=C1CCC(=O)N1c1cccc(-c2nc3ccccc3o2)c1 | 8.68
23 | CCOc1cc(C(=O)Nc2cc(C)on2)cc(OCC)c1OCC | 15.9
24 | CN(C)C(=O)COC(=O)c1ccccc1Sc1ccccc1C#N | 0.434
25 | CS(=O)(=O)N(CC(=O)NCCSCc1ccccc1)c1ccccc1Br | -4.22
26 | Cc1nn(Cc2ccccc2Cl)c2sc(C(=O)Nc3nccs3)cc12 | 3.32
27 | O=C(NNS(=O)(=O)c1ccc(CCCl)cc1)C(O)(c1ccccc1)c1ccccc1 | -55.9
28 | Clc1ccc(Cn2c(/C=C/c3ccco3)nc3ccccc32)cc1 | 0.0278
29 | CC1(C)CC(NC(=O)c2ccccc2)CC(C)(C)N1 | 13.2
30 | CCCC(C)NNC(=O)c1cc2ccccc2[nH]1 (centres unmarked) | 7.95
31 | CCOc1ccc2nc(/N=C/c3c(C)[nH]n(-c4ccccc4)c3=O)sc2c1 | 17.9
32 | CCCCCNc1nc2sc3c(c2c(=O)n1-c1cccc(Cl)c1)CCN(C)C3 | -39.5
33 | CCN(CC)C(=O)Cn1ncc2c1-c1ccccc1OC2 | -1.35
34 | Cc1ccc(-n2c(SCC(=O)OC(C)C)nnc2-c2ccccn2)cc1 | -8.59
35 | COc1ccc(NC(=O)CSc2ncnc3c2cnn3Cc2ccccc2)cc1 | 17.1
36 | CC(=O)N/N=C(\C)CC(=O)Nc1ccc2c(c1)OCCO2 | 2.77
37 | Cc1ccsc1C(=O)N1CCN(C(=O)c2ccco2)CC1 | -10.4
38 | CCCn1c(/C=C/c2ccccc2)nc2ccccc21 | -28.4

Row | SMILES | hERG current change (%, negative = inhibition) at 10uM [%]
39 | C=CCN1C(=O)C(CC(=O)NCC)SC1=Nc1ccccc1CC (centres unmarked) | 0.167
40 | Cc1ccc(SCc2c(C#N)c3ccccc3n2C)cc1 | 4.99
41 | O=C(CCCSc1nc2ccccc2[nH]1)Nc1nnc(-c2ccccc2)o1 | -14.1
42 | CCOC(=O)Nc1ccc2c(c1)N(C(=O)CCN1CCOCC1)c1ccccc1S2=O.Cl (centres unmarked) | -18.5
43 | CN1CCN(CCCCOc2ccccc2C=O)CC1.O=C(O)C(=O)O | 0.13
44 | COc1ccc(C(=O)NNC(=S)NC(=O)c2ccccc2)cc1 | 23.7
45 | COc1ccc(C(=O)NC(C)CCc2ccccc2)cc1 (centres unmarked) | -2.64
46 | Cc1ccc(C(=O)NCCNC(=O)COc2ccc(C)c(C)c2)cn1 | 4.82
47 | COc1ccc2cc(OC)c(C(=O)N3CCOCC3)cc2c1 | -8.24
48 | O=C(COC(=O)CN1C(=O)C2CCCCC2C1=O)Nc1ccc(S(=O)(=O)N2CCOCC2)cc1 (centres unmarked) | 29.9
49 | CCCN1C(=O)C2(SC(NC(C)=O)=NN2C(C)=O)c2cc(C)cc(C)c21 (centres unmarked) | -8.54
50 | Cc1ccc(N2CC(C(=O)Nc3ccc4c(c3)OCCO4)CC2=O)cc1 (centres unmarked) | 16.2
51 | N#CC1=C(SCC(=O)NC2CC2)NC(=O)C(C#N)C12CCCCC2 (centres unmarked) | 9.32
52 | COc1ccc(CC(=O)NNC(=O)CCc2ccccc2)cc1OC | 14.8
53 | CCC(NS(=O)(=O)c1ccc(OC)cc1)C(=O)NCCc1ccccc1 (centres unmarked) | 11.3
54 | CCCc1cc(=O)[nH]c(SCC(=O)Nc2sc3c(c2C#N)CCC(C)C3)n1 (centres unmarked) | 10.6
55 | O=C(/C=C/c1ccccc1Cl)N(Cc1ccc(Cl)cc1)C1CCS(=O)(=O)C1 (centres unmarked) | 1.48
56 | CCOc1ccc(C(C(=O)NCC2CCCO2)N(C(=O)c2snc(C(N)=O)c2N)c2ccccc2F)cc1 (centres unmarked) | -2.95
